# Where “and” joins values, the source holds several entries; their conditions need not be identical. Equal values may be shown once. The inconclusive results got no clear call from the source; some entries with a clear call stand among them for comparison. For part of these data: Potencies of inconclusive entries are doubtful fits and often do not repeat. Calls of active or inactive are those of the source. Unless noted, calls come from the whole dose curve; as a rule, active = well fitted curve in the direction sought with a large enough effect in the repeat runs; inconclusive = weak or mixed curves; inactive = no such curve, though single readings can be large; an effect the other way counts as inactive or inconclusive.
# What was measured:
# [1] = qHTS assay to identify small molecule that activate the aryl hydrocarbon receptor (AhR) signaling pathway - cell viability counter screen (AID 743086); note: nearly all actives have a fitted effect of over 45% in size
# In short: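 HepG2-AhR-luc (HG2L7.5c1) cells, 4000/well, treated 24 h at 37 C with compound; viability measured as CellTiter-Fluor fluorescence after 30 min in the same wells as the luciferase read.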
# [2] = biological target: Peroxisome proliferator-activated receptor gamma (Homo sapiens) (UniProt P37231); assay: qHTS assay to identify small molecule agonists of the peroxisome proliferator-activated receptor gamma (PPARg) signaling pathway (AID 743094; active = well fitted activation curve with a large enough effect in the signal ratio in the repeat runs, not every such curve was filed as active; inconclusive = weak or mixed curves, or effect the other way; inactive = no such curve, though single readings can be large or run the other way; the % refers to the signal ratio); conditions: HEK293H PPARg-UAS-bla, beta-lactamase FRET ratio, 17 h; activation: at 57 µM (top of the series) unless noted
# In short: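 Following 5 h plating at 37C, PPARg-bla HEK293H cells receive compound or DMSO for 17 h; fluorescence intensity is recorded after LiveBLAzer B/G loading for 1 h at room temperature.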
# [3] = biological target: Peroxisome proliferator-activated receptor gamma (Homo sapiens) (UniProt P37231); assay: qHTS assay to identify small molecule antagonists of the peroxisome proliferator-activated receptor gamma (PPARg) signaling pathway (AID 743191; calls by dose curve; note: nearly all actives have a fitted effect of over 30% in size; for ratio activity, negative = inhibition: % is set by controls: 0 for no effect and ±100 for the full control effect); conditions: HEK293H PPARg-UAS-bla, beta-lactamase ratio, antagonist, 17 h; ratio activity, negative = inhibition: at 62.6 µM (top of the series) unless noted
# In short: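 GeneBLAzer PPARg UAS-bla HEK293H cells, 5 h post-plating, exposed to compounds 17 h at 37C. LiveBLAzer B/G FRET substrate added for 1 h at room temperature; beta-lactamase reporter read by fluorescence intensity.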
# [4] = qHTS assay to identify small molecule antagonists of the peroxisome proliferator-activated receptor gamma (PPARg) signaling pathway - cell viability counter screen (AID 743194); conditions: PPARg-bla HEK293H viability, CellTiter-Glo luminescence, 17 h, co-treated with 50 nM rosiglitazone; activity change, negative = cytotoxicity: at 62.6 µM (top of the series) unless noted; note: nearly all actives have a fitted effect of over 55% in size
# In short: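 Cytotoxicity counter screen in PPARg-bla HEK293H cells, same wells as reporter assay. Compounds plus 50 nM rosiglitazone (final) for 17 h at 37 C, then viability read by CellTiter-Glo luminescence.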
# [5] = qHTS assay for small molecule agonists of the antioxidant response element (ARE) signaling pathway (AID 743202; active = well fitted activation curve with a large enough effect in the signal ratio in the repeat runs, not every such curve was filed as active; inconclusive = weak or mixed curves, or effect the other way; inactive = no such curve, though single readings can be large or run the other way; the % refers to the signal ratio); conditions: HepG2 ARE-bla reporter, beta-lactamase FRET, 16 h; activation: at 73.3 µM (top of the series) unless noted
# In short: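 Agonist mode reporter screen: HepG2 cells with ARE-controlled beta-lactamase are incubated with test compounds for 16 h at 37 C, and beta-lactamase activity is measured as fluorescence of cleaved B/G FRET substrate.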
# [6] = qHTS assay for small molecule activators of the heat shock response signaling pathway - cell viability counter screen (AID 743209); conditions: HSE-bla HeLa viability, CellTiter-Glo luminescence, 5 h; activity change, negative = cytotoxicity: at 62.6 µM (top of the series) unless noted; note: nearly all actives have a fitted effect of over 50% in size
# In short: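 Counter screen for cytotoxicity in HeLa HSE-bla reporter cells. Treatment was 5 h at 37 C; viability was detected by luminescent ATP assay (CellTiter-Glo) in the same wells as the beta-lactamase read.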
# [7] = qHTS assay for small molecule activators of the heat shock response signaling pathway (AID 743210; active = well fitted activation curve with a large enough effect in the signal ratio in the repeat runs, with a control signal flat, not every such curve was filed as active; inconclusive = weak or mixed curves; the % refers to the signal ratio); conditions: HeLa HSE-bla reporter, beta-lactamase ratio, 5 h; activation: at 62.6 µM (top of the series)
# In short: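 Quantitative high-throughput format using an engineered HeLa line in which heat shock response elements drive beta-lactamase; after 5 h with compound, cells received a B/G FRET substrate and fluorescence was read.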
# [8] = qHTS assay to identify small molecule agonists of the peroxisome proliferator-activated receptor delta (PPARd) signaling pathway - cell viability counter screen (AID 743211); conditions: PPARd-bla HEK293H viability, CellTiter-Glo luminescence, 17 h; activity change, negative = cytotoxicity: at 62.6 µM (top of the series); note: nearly all actives have a fitted effect of over 55% in size
# In short: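 Tox21 library compounds, delivered in DMSO, were incubated 17 h with PPARd-bla HEK293H cells; cytotoxicity was taken from CellTiter-Glo luminescence read 30 min after reagent addition.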
# [9] = biological target: Peroxisome proliferator-activated receptor delta (Homo sapiens) (UniProt Q03181); assay: qHTS assay to identify small molecule agonists of the peroxisome proliferator-activated receptor delta (PPARd) signaling pathway (AID 743212; calls by dose curve); conditions: HEK293H PPARd-UAS-bla, beta-lactamase FRET ratio, 17 h; activation: at 62.6 µM (top of the series) unless noted
# In short: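 Quantitative high-throughput agonist screen in a HEK293H beta-lactamase reporter line under UAS control. Compounds in DMSO, at 37 C. Fluorescence read after 2 h with FRET substrate at room temperature.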
# [10] = biological target: Peroxisome proliferator-activated receptor delta (Homo sapiens) (UniProt Q03181); assay: qHTS assay to identify small molecule antagonists of the peroxisome proliferator-activated receptor delta (PPARd) signaling pathway (AID 743215; active = well fitted inhibition curve with a large enough effect in the signal ratio in the repeat runs, not every such curve was filed as active; inconclusive = weak or mixed curves, or effect the other way; inactive = no such curve, though single readings can be large or run the other way; the % refers to the signal ratio;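 note: cells stimulated with agonist L165041 at 300 nM final during compound exposure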); conditions: HEK293H PPARd-UAS-bla, beta-lactamase FRET ratio, antagonist, 17 h; ratio activity, negative = inhibition: at 62 µM (top of the series) unless noted
# In short: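 With L165041 present at 300 nM final, compounds were incubated 17 h at 37 C on PPARd UAS-bla HEK293H cells. A FRET-based beta-lactamase substrate was then applied for 2 h at room temperature and fluorescence intensity recorded.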
# [11] = biological target: Bile acid receptor (Homo sapiens) (UniProt Q96RI1); assay: qHTS assay to identify small molecule antagonists of the farnesoid-X-receptor (FXR) signaling pathway (AID 743217; active = well fitted inhibition curve with a large enough effect in the signal ratio in the repeat runs, not every such curve was filed as active; inconclusive = weak or mixed curves, or effect the other way; inactive = no such curve, though single readings can be large or run the other way; the % refers to the signal ratio); conditions: HEK293T FXR-UAS-bla, beta-lactamase ratio, CDCA-stimulated, 16 h; activity change, negative = inhibition: at 62.6 µM (top of the series) unless noted
# In short: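 In this cell-based antagonist screen, inhibition of CDCA-driven (50 uM final) UAS-beta-lactamase expression in HEK 293T cells was measured by FRET fluorescence following 16 h compound exposure at 37 °C.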
# [12] = qHTS assay to identify small molecule agonists of the farnesoid-X-receptor (FXR) signaling pathway - cell viability counter screen (AID 743218); conditions: FXR-bla HEK293T viability, CellTiter-Glo luminescence, 16 h; viability change, negative = cytotoxic: at 62.6 µM (top of the series) unless noted; note: nearly all actives have a fitted effect of over 45% in size
# In short: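 After 16 h at 37 C with test compounds, FXR-bla HEK 293T cells were given LiveBLAzer B/G substrate for 2 h at RT and then CellTiter-Glo; luminescence was taken after 30 min.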
# [13] = biological target: Bile acid receptor (Homo sapiens) (UniProt Q96RI1); assay: qHTS assay to identify small molecule agonists of the farnesoid-X-receptor (FXR) signaling pathway (AID 743220; active = well fitted activation curve with a large enough effect in the signal ratio in the repeat runs, not every such curve was filed as active; inconclusive = weak or mixed curves, or effect the other way; the % refers to the signal ratio); conditions: HEK293T FXR-UAS-bla, beta-lactamase FRET ratio, 16 h; activation: at 62.6 µM (top of the series) unless noted
# In short: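 Beta-lactamase reporter under UAS control in GeneBLAzer FXR HEK 293T cells (5000/well) measured with LiveBLAzer FRET substrate after 2 h at room temperature. Compound exposure lasted 16 h at 37C.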
# [14] = biological target: Vitamin D3 receptor (Homo sapiens) (UniProt P11473); assay: qHTS assay to identify small molecule antagonists of the vitamin D receptor (VDR) signaling pathway (AID 743223; active = well fitted inhibition curve with a large enough effect in the signal ratio in the repeat runs, not every such curve was filed as active; inconclusive = weak or mixed curves, or effect the other way; inactive = no such curve, though single readings can be large or run the other way; the % refers to the signal ratio); conditions: VDR-UAS-bla HEK293T, beta-lactamase FRET ratio, 16 h; activity change, negative = inhibition: at 61 µM (top of the series) unless noted
# In short: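 Quantitative HTS in VDR-bla reporter cells stimulated with 1alpha,25-dihydroxyvitamin D3, 3 nM final. Compound exposure 16 h, 37C, 5% CO2. Read-out: beta-lactamase FRET substrate fluorescence, 2 h RT.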
# [15] = qHTS assay to identify small molecule antagonists of the vitamin D receptor (VDR) signaling pathway - cell viability counter screen (AID 743225); conditions: VDR-bla HEK293T viability, CellTiter-Glo luminescence, 16 h; viability change, negative = cytotoxic: at 61 µM (top of the series) unless noted; note: nearly all actives have a fitted effect of over 50% in size
# In short: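 Same-well multiplex: following 16 h treatment of HEK 293T cells carrying a UAS-driven beta-lactamase reporter with compound and agonist (3 nM final), and a 2 h FRET substrate step, CellTiter-Glo was added and luminescence read after 30 min.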
# [16] = qHTS assay to identify small molecule antagonists of the peroxisome proliferator-activated receptor delta (PPARd) signaling pathway - cell viability counter screen (AID 743213); conditions: PPARd-bla HEK293H viability, CellTiter-Glo luminescence, 17 h; viability change, negative = cytotoxic: at 62 µM (top of the series) unless noted; note: nearly all actives have a fitted effect of over 50% in size
# In short: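 HEK293H cells with the PPARd UAS-bla reporter, co-treated 17 h at 37 C with compounds and L165041 (300 nM final), were lysed with CellTiter-Glo. Luminescence indicated viable cell content.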
# [17] = qHTS assay to identify small molecule antagonists of the farnesoid-X-receptor (FXR) signaling pathway - cell viability counter screen (AID 743221; active = well fitted cell-killing curve with a large enough effect in the repeat runs, not every such curve was filed as active; inconclusive = weak or mixed curves, or effect the other way; inactive = no such curve, though single readings can be large or run the other way; note: nearly all actives have a fitted effect of over 50% in size); conditions: FXR-bla HEK293T viability, CellTiter-Glo luminescence, 16 h; activity change, negative = cytotoxicity: at 62.6 µM (top of the series)
# In short: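 Cytotoxicity is taken from ATP luminescence (CellTiter-Glo, 30 min, room temperature) in FXR-bla HEK 293T cells previously incubated 16 h at 37 C with compound and chenodeoxycholic acid at 50 uM final.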
# [18] = biological target: Vitamin D3 receptor (Homo sapiens) (UniProt P11473); assay: qHTS assay to identify small molecule agonists of the vitamin D receptor (VDR) signaling pathway (AID 743222; calls by dose curve; for activation: % is set by controls: 0 for no effect and ±100 for the full control effect); conditions: HEK293T VDR-UAS-bla, beta-lactamase FRET ratio, 16 h; activation: at 63.5 µM (top of the series) unless noted
# In short: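 VDR-bla cells were seeded, left 4 h, treated with compounds in DMSO for 16 h, incubated 2 h at RT with B/G FRET substrate, and read for fluorescence.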
# Potency is the fitted concentration of half-maximal effect; tags give direction and shape of the fitted curve or compound fluorescence and quenching.
# Sequence of UniProt P11473 (P11473 whole entry, looked up): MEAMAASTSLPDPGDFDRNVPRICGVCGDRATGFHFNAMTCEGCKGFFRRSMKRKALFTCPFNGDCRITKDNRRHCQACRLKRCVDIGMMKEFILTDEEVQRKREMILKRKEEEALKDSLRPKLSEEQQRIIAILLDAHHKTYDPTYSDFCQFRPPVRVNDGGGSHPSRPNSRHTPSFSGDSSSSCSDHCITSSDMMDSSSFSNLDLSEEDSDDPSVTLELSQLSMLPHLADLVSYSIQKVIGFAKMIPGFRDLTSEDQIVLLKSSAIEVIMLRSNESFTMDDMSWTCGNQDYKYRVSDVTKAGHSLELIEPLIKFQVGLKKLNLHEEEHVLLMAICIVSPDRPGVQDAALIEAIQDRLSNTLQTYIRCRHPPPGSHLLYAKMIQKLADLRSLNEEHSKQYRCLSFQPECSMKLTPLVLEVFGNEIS
# Sequence of UniProt P37231 (P37231 whole entry, looked up): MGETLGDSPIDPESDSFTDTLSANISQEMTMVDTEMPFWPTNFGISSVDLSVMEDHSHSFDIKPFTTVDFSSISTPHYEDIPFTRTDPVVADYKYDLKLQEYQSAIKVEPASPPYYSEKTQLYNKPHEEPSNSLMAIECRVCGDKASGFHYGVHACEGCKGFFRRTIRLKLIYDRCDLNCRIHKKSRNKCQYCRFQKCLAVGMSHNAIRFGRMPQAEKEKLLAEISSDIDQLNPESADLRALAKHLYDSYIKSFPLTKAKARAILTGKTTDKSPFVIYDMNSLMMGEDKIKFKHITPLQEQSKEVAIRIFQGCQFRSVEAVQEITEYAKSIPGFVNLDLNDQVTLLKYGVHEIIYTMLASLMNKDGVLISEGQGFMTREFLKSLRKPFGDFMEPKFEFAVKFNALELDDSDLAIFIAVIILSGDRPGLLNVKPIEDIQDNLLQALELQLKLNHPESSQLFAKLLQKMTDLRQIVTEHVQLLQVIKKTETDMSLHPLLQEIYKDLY
# Sequence of UniProt Q03181 (Q03181 whole entry, looked up): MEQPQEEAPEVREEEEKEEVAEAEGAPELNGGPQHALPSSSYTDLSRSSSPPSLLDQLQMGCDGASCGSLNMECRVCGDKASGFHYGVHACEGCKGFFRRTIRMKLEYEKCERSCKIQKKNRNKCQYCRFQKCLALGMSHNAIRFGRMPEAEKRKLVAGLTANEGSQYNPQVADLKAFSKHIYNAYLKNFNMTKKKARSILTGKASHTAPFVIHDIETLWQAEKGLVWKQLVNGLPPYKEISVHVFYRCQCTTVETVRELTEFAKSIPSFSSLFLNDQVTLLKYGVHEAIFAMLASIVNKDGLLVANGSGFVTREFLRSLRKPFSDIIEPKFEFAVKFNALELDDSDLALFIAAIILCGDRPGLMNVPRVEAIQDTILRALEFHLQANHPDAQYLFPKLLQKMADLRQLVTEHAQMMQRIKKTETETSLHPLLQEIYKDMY
# Sequence of UniProt Q96RI1 (Q96RI1 whole entry, looked up): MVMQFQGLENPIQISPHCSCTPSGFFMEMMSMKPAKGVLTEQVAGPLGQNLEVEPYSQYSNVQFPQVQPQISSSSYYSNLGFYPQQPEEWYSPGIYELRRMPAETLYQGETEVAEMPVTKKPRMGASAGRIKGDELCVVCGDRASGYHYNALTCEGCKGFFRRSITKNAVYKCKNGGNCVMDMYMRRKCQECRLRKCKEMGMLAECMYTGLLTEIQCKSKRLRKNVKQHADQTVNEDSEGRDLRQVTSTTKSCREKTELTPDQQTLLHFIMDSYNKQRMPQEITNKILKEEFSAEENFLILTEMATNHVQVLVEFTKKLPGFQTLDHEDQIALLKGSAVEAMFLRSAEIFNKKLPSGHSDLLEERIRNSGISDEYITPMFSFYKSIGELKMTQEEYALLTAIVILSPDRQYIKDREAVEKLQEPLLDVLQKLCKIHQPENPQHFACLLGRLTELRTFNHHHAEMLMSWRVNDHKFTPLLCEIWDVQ
Structure (SMILES),Potency [1],Potency [2],Potency [3],Potency [4],Potency [5],Potency [6],Potency [7],Potency [8],Potency [9],Potency [10],Potency [11],Potency [12],Potency [13],Potency [14],Potency [15],"ratio activity, negative = inhibition [3]",Potency [16],Potency [17],Potency [18]
O=S1(=O)CC(Cl)(Cl)C(Cl)(Cl)C1,active: 13.7 µM,"inconclusive: 15.5 µM [falling, full curve]","inconclusive: 4.36 µM [rising, partial curve]",active: 5.49 µM,"inconclusive: 4.86 µM [falling, full curve]",active: 1.95 µM,"inconclusive: 2.45 µM [falling, full curve]",active: 3.09 µM,"inconclusive: 11 µM [falling, full curve]","inconclusive: 11 µM [cytotoxic, single point]","inconclusive: 5.49 µM [rising, partial curve]",active: 5.49 µM,"inconclusive: 7.76 µM [falling, full curve, poor fit]",active: 1.74 µM,active: 4.36 µM,,,,
CC1=C(/C=C/C(C)=C/C=C/C(C)=C/C(=O)Nc2ccc(O)cc2)C(C)(C)CCC1,"inconclusive: 16.8 µM [falling, partial curve]","inconclusive: 26.8 µM [cytotoxic] and inconclusive: 56.4 µM [cytotoxic, single point]",active: 71 µM,"inconclusive: 63.2 µM [cytotoxic, single point]",,active: 20 µM and active: 33.5 µM,"inconclusive: 35.6 µM [cytotoxic, partial curve, poor fit] and inconclusive: 32.2 µM",,,"inconclusive: 8.93 µM [inhibitor, partial curve, poor fit] and inconclusive: 33.5 µM [inhibitor, single point]",,active: 44.8 µM and active: 11.9 µM,,"inconclusive: 56.4 µM [cytotoxic, single point] and inconclusive: 26.8 µM [inhibitor, single point]",active: 14.2 µM and active: 10.7 µM,inconclusive: 0.478%,active: 12.6 µM and active: 7.5 µM,active: 56.4 µM and active: 26.6 µM,"inconclusive: 3.99 µM [inhibitor] and inconclusive: 5.31 µM [inhibitor, partial curve, poor fit]"
O=c1[nH]sc2ccccc12,active: 68.6 µM,inconclusive: 61.6 µM [single point],inconclusive: 61.6 µM [single point],"inconclusive: 11 µM [cytotoxic, full curve, poor fit]",inconclusive: 30.6 µM,,inconclusive: 51.9 µM,active: 17.4 µM,"inconclusive: 30.9 µM [falling, partial curve, poor fit]","inconclusive: 24.5 µM [cytotoxic, full curve]","inconclusive: 61.6 µM [cytotoxic, single point]",active: 49 µM,inconclusive: 61.6 µM [single point],"inconclusive: 54.9 µM [rising, single point]","inconclusive: 54.9 µM [cytotoxic, single point]",,active: 17.4 µM,active: 49 µM,inactive
Nc1ccc(N)c2ccccc12,active: 4.32 µM,"inconclusive: 13.8 µM [rising, partial curve]",inconclusive: 1.74 µM [full curve],active: 1.23 µM,"inconclusive: 0.485 µM [falling, full curve]",active: 34.6 µM,inconclusive: 52.8 µM,,"inconclusive: 54.9 µM [rising, single point]","inconclusive: 43.6 µM [rising, partial curve, poor fit]",inconclusive: 54.9 µM,active: 43.6 µM,inconclusive: 61.6 µM,"inconclusive: 48.9 µM [rising, partial curve]",active: 43.6 µM,,"inconclusive: 27.5 µM [cytotoxic, partial curve, poor fit]","inconclusive: 54.9 µM [falling, single point]","inconclusive: 61.6 µM [rising, single point]"
Cc1cc(Br)ccc1NC(=O)CCl,active: 54.5 µM,"inconclusive: 24.5 µM [rising, partial curve]","inconclusive: 17.4 µM [rising, partial curve]",,,,inconclusive: 21.9 µM,,inconclusive: 43.6 µM [partial curve],"inconclusive: 19.5 µM [rising, partial curve]","inconclusive: 43.6 µM [rising, partial curve]",active: 24.5 µM,,inconclusive: 13.8 µM [full curve],active: 19.5 µM,,active: 24.5 µM,,"inconclusive: 6.92 µM [rising, partial curve]"

# Source: PubChem BioAssay (Tox21)
